In all, about 16,000 sequences were measured (“Z-score”: median about -0.37, highest 2% from about 3.1 on). The list shows a part of the results.
test system: RBM10 RRM1-ZnF-RRM2 (GST-tagged construct); experiment: RNAcompete 7-mer binding Z-score; higher = stronger binding preference
Method in brief: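 GST-tagged RBM10 constructs (20 pmol) were mixed with a designed pool of 241 399 RNAs up to 41 nt (1.5 nmol), transcribed from microarray-derived DNA templates. Mixing was in 1 ml Hepes pH 7.8 buffer with KCl, NaCl, glycerol, DTT, BSA and glutathione Sepharose beads. Binding ran 30 min at 4°C, followed by four 2-min washes at 4°C, and bound RNA was identified by microarray hybridisation. Each heptamer motif received a one-sided Z-score for enrichment across probes containing it.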

Row | Sequence | RNAcompete 7-mer binding Z-score
1 | CUGUGCA | -0.526
2 | UGUGGCC | 0.0459
3 | GCGCGUA | -0.027
4 | GCAAUCC | -0.457
5 | UGUCUUU | -0.763
6 | CCCCAUG | -0.592
7 | AGGAUCU | -0.431
8 | UAAUAUU | -0.621
9 | AUGAUGC | -0.344
10 | AUUCGGU | -0.0816
11 | AAGAUAU | -0.107
12 | UAGUAAU | -0.326
13 | CCCGGUA | -0.238
14 | ACUUUAU | -0.832
15 | GAAUAUA | 0.104
16 | CCCAGUA | -0.686
17 | GGCAAAC | 0.734
18 | GGCAAGG | 3.47
19 | GCACCUU | -0.599
20 | UGGUGCG | 1.26
21 | GGAAACG | 1.92
22 | CCGCCGC | -0.759
23 | UACUUCC | -0.981

Row | Sequence | RNAcompete 7-mer binding Z-score
24 | UACGAAC | -0.235
25 | GUGCACC | -0.0306
26 | UCCGUAA | -0.69
27 | UAGGCUU | -0.333
28 | AUUGAAA | -0.26
29 | CGUAUAA | -0.289
30 | UCUGGCG | -0.5
31 | CUAAAAG | -0.311
32 | UGACUCC | -0.668
33 | UGAGCGA | 1.34
34 | GUGUGGA | 2.7
35 | AUUCCGU | -0.653
36 | GCGGAGA | 1.67
37 | GGUUGGU | 1.94
38 | ACCUGUC | -0.846
39 | AGGUGAC | 1.69
40 | UACUAAG | -0.191
41 | GGCGAGG | 3.22
42 | CGCCCGG | -0.446
43 | CAUCGGG | 1.11
44 | CCCCGGC | -0.497
45 | UGUUUGU | -0.286
46 | GGGGAGA | 2.53

Row | Sequence | RNAcompete 7-mer binding Z-score
47 | CGCAUCC | -0.683
48 | CUAGUUA | -0.384
49 | UCACGUC | -0.683
50 | CUUCUAU | -0.839
51 | AAUAAGU | 0.00944
52 | UGUGGAG | 2.47
53 | GUUAGAG | 1.13
54 | AGGUGAA | 2.11
55 | CUGCAGG | 0.272
56 | UGUGCUG | -0.0998
57 | CACUCAC | -0.846
58 | AUAGAUG | 0.538
59 | CAGAGCU | -0.151
60 | UUCCAUC | -0.701
61 | UCACAAU | -0.511
62 | UUUUGAG | -0.264
63 | GGAAGCA | 1.76
64 | UUUUAGU | -0.442
65 | GCUAGGC | 0.0349
66 | GAUCGCG | -0.0925
67 | CACAGUA | -0.22
68 | AACACGU | -0.3
69 | CCCCACU | -0.755

Row | Sequence | RNAcompete 7-mer binding Z-score
70 | UUGCUCA | -0.726
71 | ACGUCCA | -0.755
72 | UAGAUGA | 0.348
73 | GAACACG | 0.421
74 | GCACUCU | -0.803
75 | UCCUUAC | -0.65
76 | CUGAUUA | -0.715
77 | AUCUACA | -0.704
78 | CAAUAAU | -0.442
79 | AUACUUU | -0.923
80 | ACUUGCA | -0.726
81 | GGGCCCA | -0.151
82 | GAAAAUG | 1.46
83 | GCUACUU | -0.643
84 | CUGCAUA | -0.69
85 | AACGUAG | 0.756
86 | ACUUCCA | -0.843
87 | ACCGCCU | -0.941
88 | CCGAGAA | -0.464
89 | AUACGUU | -0.482
90 | AGUCGGA | 0.993
91 | AGUAGCG | 0.61
92 | GAGACAA | 0.45

Row | Sequence | RNAcompete 7-mer binding Z-score
93 | UAGCGCU | -0.479
94 | GUCCUCU | -0.664
95 | UUGAAUU | -0.606
96 | CAUAUUU | -0.803
97 | ACAGAUA | -0.304
98 | AUCAAGA | -0.147
99 | CCCCAUC | -0.551
100 | AUCGCUU | -0.923
101 | GCUCUCC | -0.748
102 | UAUGCUC | -0.865
103 | UGUCUAC | -0.719
104 | GUCCUGA | -0.592
105 | AGGUGUC | 0.53
106 | UCAACCA | -0.551
107 | CAAAUCA | -0.508
108 | AUACCAU | -0.646
109 | ACAGACG | 0.253
110 | GGUGAUA | 1.81
111 | GGCGCAU | 0.217
112 | CGAAUUC | -0.653
113 | CCCGAUA | -0.715
114 | CAUUCUU | -0.85
115 | CGAUAGA | 0.00216

Row | Sequence | RNAcompete 7-mer binding Z-score
116 | CAAACAC | -0.515
117 | CAAUAUC | -0.431
118 | UCGGAUU | -0.398
119 | AUGAAGU | 0.439
120 | CCUCUGC | -0.912
121 | GGCACUG | 0.545
122 | AAACGAU | 0.13
123 | CCAGUUU | -0.821
124 | CAACUAU | -0.511
125 | CCAAGGC | -0.0634
126 | AGCACAG | 0.217
127 | UUAUUUU | -0.683
128 | UCCGGAU | -0.0925
129 | UUGACCG | -0.653
130 | CACUUUC | -0.985
131 | UUGUUUG | -0.322
132 | AACGCCU | -0.963
133 | UGUUAAC | -0.581
134 | CCCAAAA | -0.803
135 | CCGUUGA | -0.46
136 | AGUUGAU | 0.144
137 | GAAUGCU | -0.322
138 | AGCAUCG | -0.337

Row | Sequence | RNAcompete 7-mer binding Z-score
139 | CGAGUCG | -0.0962
140 | UCCAUCC | -0.602
141 | GCGCGCA | -0.0998
142 | UAGGUAA | 1.96
143 | AAUCGAA | 0.0167
144 | CGUUUGA | -0.748
145 | GCGUAUU | -0.289
146 | GUCUUGA | -0.672
147 | GCUGAGG | 1.16
148 | ACGGCGU | 0.304
149 | UUCCGUC | -0.726
150 | CAGUAGG | 2.35
151 | CCUGCUA | -0.992
152 | AAGCAAC | -0.0343
153 | UUAGGCG | 0.902
154 | GGCGGCC | 0.592
155 | AUAGACU | -0.435
156 | GCAAAUU | -0.369
157 | ACGGGUC | 1.42
158 | AGUGCCC | -0.5
159 | AAGUGAG | 1.23
160 | UACCUCU | -0.868
161 | ACCCAGC | -0.785

Row | Sequence | RNAcompete 7-mer binding Z-score
162 | CGCUCUU | -0.814
163 | AUGAGAU | 0.454
164 | AGCAAGC | 0.00216
165 | CCAAUUU | -0.992
166 | CGGGAAU | 1.31
167 | CGUUCUA | -0.788
168 | AACUCAA | -0.482
169 | GCCUUUA | -0.876
170 | UUGUAUG | -0.14
171 | CAACGGU | 0.0969
172 | CGUUGUU | -0.446
173 | UGGGGAG | 3.37
174 | AGUAGGA | 3.08
175 | CUAAUAC | -0.683
176 | ACUCCGU | -0.901
177 | AUUCCAA | -0.526
178 | UCGAGAG | 0.213
179 | UACAGAG | 0.206
180 | AGCUAGG | 1.1
181 | AAGGUGC | 2.55
182 | AUAUAAC | -0.519
183 | GUGGGCG | 3.37
184 | GAUAGUG | 1.27
